Laboratory results as given in PubChem BioAssay AID1030 (National Center for Advancing Translational Sciences (NCATS), 2008).
The campaign covered roughly 220,000 compounds. About 16,000 (7.3%) were called active. This list was built around the results that the source calls inconclusive (neither active nor inactive); the mix of calls is not that of the screen. Calls follow the shape of the dose curve; as a rule, active = well fitted inhibition curve with a large enough effect (not every such curve was filed as active); inconclusive = small, poorly fitted or top-dose-only effect, or another doubt; inactive = no such curve, though single readings can be large or run the other way. Potencies of inconclusive entries are left out as doubtful fits.

target: Aldehyde dehydrogenase 1A1 (Homo sapiens) (UniProt P00352); assay: qHTS Assay for Inhibitors of Aldehyde Dehydrogenase 1 (ALDH1A1); details: Purified ALDH1A1, NADH fluorescence, propionaldehyde substrate; series mostly up to 75.3 µM; activity, negative = inhibition: at the top concentration;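 as to activity, negative = inhibition: plate controls were no enzyme wells and a reference inhibitor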
Chain of UniProt P00352 (P00352 whole entry, looked up): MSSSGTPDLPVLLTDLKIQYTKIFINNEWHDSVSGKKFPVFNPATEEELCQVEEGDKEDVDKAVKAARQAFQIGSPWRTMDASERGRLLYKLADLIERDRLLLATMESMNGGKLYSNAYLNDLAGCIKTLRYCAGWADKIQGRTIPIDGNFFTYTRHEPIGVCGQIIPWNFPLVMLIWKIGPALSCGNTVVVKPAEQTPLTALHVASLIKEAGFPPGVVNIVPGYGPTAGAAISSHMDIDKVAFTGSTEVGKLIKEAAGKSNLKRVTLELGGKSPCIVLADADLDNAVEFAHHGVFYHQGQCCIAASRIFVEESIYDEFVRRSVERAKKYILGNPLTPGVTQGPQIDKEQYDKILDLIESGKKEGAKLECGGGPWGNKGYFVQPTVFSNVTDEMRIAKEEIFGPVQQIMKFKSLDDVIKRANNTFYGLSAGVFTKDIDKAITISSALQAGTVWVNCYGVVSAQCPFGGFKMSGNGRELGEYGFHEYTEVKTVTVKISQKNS
Potency is read from the fitted curve at half-maximal effect; tags tell the direction and shape of the fitted curve.

| SMILES | Potency | activity, negative = inhibition |
| --- | --- | --- |
| Cc1c(C(=O)Nc2cc(S(=O)(=O)N3CCOCC3)ccc2N2CCOCC2)oc2ccccc12 | inconclusive [inhibitor, single point] |  |
| CCNc1ncc2nc(-c3cccs3)c(=O)n(CCC#N)c2n1 | inconclusive [inhibitor, partial curve] |  |
| Cc1ccc(S(=O)(=O)NCC2CCC(C(=O)NCc3cccs3)CC2)cc1 (stereo not given) | active: 0.794 µM |  |
| CCOc1ccc(OCC)c(S(=O)(=O)NCc2cccnc2)c1 | inconclusive [inhibitor, single point] |  |
| CCCn1nc2cc(C(=O)NCc3ccc(C)cc3)ccc2c1OCC | inconclusive [inhibitor, single point] |  |
| CSc1nsc(SCC(=O)N2CCN(c3ccccc3)CC2)n1 | inconclusive [inhibitor, single point] |  |
| COC(=O)c1ccc(/C=C(\C#N)c2nc3ccccc3s2)cc1 | inconclusive [inhibitor, single point] |  |
| COC(=O)[C@@H]1C(O)[C@@H](C(=O)OC)[C@H](C)N(C)[C@@H]1C (stereo not given in full) |  | inactive: 8.04% [at 13.5 µM] |
| Cc1cc(C)c(Cc2c(C)nc3c(C(=O)NCc4ccco4)cnn3c2C)c(C)c1 | inconclusive [inhibitor, partial curve] |  |
| O=C(NNC(=S)Nc1ccc(F)c(Cl)c1)c1ccccc1Br | active: 12.6 µM |  |
| c1ccc(-n2nnnc2SCc2ccccn2)cc1 | inconclusive [inhibitor, single point] |  |
| CN(C)S(=O)(=O)c1ccc(C(=O)NCc2ccccc2)cc1 | inconclusive [inhibitor, single point] |  |
| S=c1[nH]nc(-c2ccccc2Cl)n1Cc1ccccc1 | inconclusive [inhibitor, single point] |  |
| Cc1ccc(CN2CCN(/N=C/c3cc(Br)cc(Br)c3O)CC2)cc1 | inconclusive [inhibitor, partial curve] |  |
| COc1ccc(N(CC(=O)Nc2nccs2)S(=O)(=O)c2c(C)[nH]c(=O)[nH]c2=O)cc1 | inconclusive [inhibitor, single point] |  |
| O=C(CN1CCC(NC(=O)c2ccccc2F)CC1)Nc1ccc2c(c1)OCO2 | inconclusive [inhibitor, single point] |  |
| CN(C)/C=C/C(=O)c1cccc(C(F)(F)F)c1 | inconclusive [inhibitor, single point] |  |
| COc1ccc(NC(=O)c2oc3ccccc3c2NC(=O)c2ccco2)cc1 | inconclusive [inhibitor, single point] |  |
| Clc1ccccc1C(c1nnnn1Cc1ccco1)N1CCN(Cc2ccco2)CC1 (stereo not given) | inconclusive [inhibitor, single point] |  |
| COCCCN(C(C)=O)c1nc(-c2ccccc2)cs1 | inconclusive [inhibitor, single point] |  |
| O=C(Nc1ccccc1)c1ccccc1CCc1ccccc1 | inconclusive [inhibitor, partial curve] |  |
| O=C1C(=O)N(CCc2c[nH]c3ccccc23)C(c2cccnc2)/C1=C(/O)c1ccccc1 (stereo not given) | inconclusive [inhibitor, single point] |  |
| CC1Cc2cc(/C(O)=C3/C(=O)C(=O)N(CCN4CCOCC4)C3c3cccc(O)c3)ccc2O1 (stereo not given) | inconclusive [inhibitor, single point] |  |
| S=c1[nH]nc(CSCc2ccccc2Cl)n1-c1ccccc1 | active: 4.47 µM |  |

| SMILES | Potency | activity, negative = inhibition |
| --- | --- | --- |
| O=C(N/N=C/c1cc2ccccc2nc1Cl)c1ccncc1 |  | inactive: -1.6% |
| CN1CCN(c2ncc3nc(-c4ccccc4)c(=O)n(Cc4cccs4)c3n2)CC1 | inconclusive [inhibitor, partial curve] |  |
| CN(C)C(=O)c1ccc(NC(=O)COc2ccc([N+](=O)[O-])cc2)cc1 | inconclusive [inhibitor, single point] |  |
| Cc1ccc(-c2nc(CN(C)C)cc(CN(C)C)c2O)cc1 | inconclusive [inhibitor, single point] |  |
| O=c1c([N+](=O)[O-])c(NCCN2CCCCCC2)c2ccccc2n1-c1ccccc1 | active: 3.98 µM |  |
| CCOC(=O)C1CCN(c2ccc([N+](=O)[O-])c(C(C)=O)c2)CC1 | inconclusive [inhibitor, partial curve] |  |
| COc1ccccc1N(CN1C(=O)c2ccccc2C1=O)C(=O)c1cccc(C)c1 |  | inactive: -5.14% |
| Cc1noc(C)c1C(=O)N1CCC2(CC1)CCN(C(c1ccccc1)c1ccccc1)CC2 | inconclusive [inhibitor, single point] |  |
| COCCn1c(=O)c(-c2ccc(OC)cc2)nc2cnc(Nc3cccc(OC)c3)nc21 |  | inactive: -0.0518% |
| COc1ccc(NC2=NCCC(=O)N2Cc2cccs2)cc1 | inconclusive [inhibitor, partial curve] |  |
| CCN1c2ccccc2NC2C1C(C(C)=O)C(=O)N2c1ccc(Cl)cc1 (stereo not given) | active: 14.1 µM |  |
| COCCOC(=O)c1c(C)oc2ccc(OC(=O)c3cccs3)cc12 |  | inactive: -8.29% |
| CCN(Cc1cnn(C)c1)Cc1nc(C(c2ccccc2)c2ccccc2)no1 | inconclusive [inhibitor, single point] |  |
| CC1(C)CC(=O)C(C=NCCN2CCN(C(=S)Nc3ccc(F)cc3)CC2)=C(O)C1 | inconclusive [inhibitor, single point] |  |
| CCCc1nnc(SCC(=O)O)n1/N=C/c1ccc2c(c1)OCO2 | inconclusive [inhibitor, single point] |  |
| CN1c2ccsc2C(O)=C(C(=S)Nc2ccccc2)S1(=O)=O | inconclusive [inhibitor, single point] |  |
| C1CCC(Nc2nc3nonc3nc2N2CCSCC2)C1 | inconclusive [inhibitor, partial curve, poor fit] |  |
| Cc1ccc(N2CC(=O)N(CC(=O)O)C2=O)cc1 |  | inactive: 7.54% |
| CC(=O)OC1CC2C(C)(C)C(=O)C3OC3[C@]2(C)C2CC[C@@]3(C)C(c4ccoc4)OC(=O)C4OC43[C@]12C (stereo not given in full) |  | inactive: -2.56% |
| CCOC(=O)C(=Cc1ccc(F)cc1)C(=O)OCC |  | inactive: 1.5% |
| CCCN1Cc2cccc(C(=O)NCc3ccccc3OC)c2C1=O | inconclusive [inhibitor, partial curve] |  |
| CCCCn1c(SCC(=O)Nc2ccccc2C(F)(F)F)nc2ccsc2c1=O | active: 28.2 µM |  |
| N#Cc1c(N)sc2c1CCN(C(=O)OCc1ccccc1)C2 | active: 10 µM |  |
| Cn1cc(C(F)(F)F)nc1-c1ccc(OC[C@@H](O)CNCCOc2ccc(O)c(C(N)=O)c2)cc1 | inconclusive [inhibitor, single point] |  |

| SMILES | Potency | activity, negative = inhibition |
| --- | --- | --- |
| COc1ccc(Cl)cc1N(C(=O)Nc1cccc(Cl)c1)C1=NCC(C)S1 (stereo not given) |  | inactive: -6.25% |
| Cc1ccc(S(=O)(=O)NC2CCC(C(=O)O)CC2)cc1 (stereo not given) | inconclusive [inhibitor, partial curve] |  |
| Cc1ccc2cc(C#N)c(SCC(=O)N3CCCc4ccccc43)nc2c1 | inconclusive [inhibitor, single point] |  |
| N#Cc1c(-c2ccc(Br)cc2)nc2n(c1=O)CCCS2 | active: 35.5 µM |  |
| Cn1cc(CN2CCc3c([nH]c4ccccc34)C2C2CCCCC2)cn1 (stereo not given) | active: 12.6 µM |  |
| O=C(NNC(=O)C1C2CCC(C2)C1C(=O)O)c1cccc(Cl)c1 (stereo not given) | inconclusive [inhibitor, single point] |  |
| COc1ccc(-c2noc(CCC(=O)NCc3cccnc3)n2)cc1 |  | inactive: 14% |
| COc1cc(/C=C/C(=O)OCC(=O)Nc2ccc3c(c2)OCCO3)ccc1OCC#N | inconclusive [inhibitor, single point] |  |
| Cc1ccc(-n2[nH]c(C)c(/C=N/Nc3ccc([N+](=O)[O-])cc3[N+](=O)[O-])c2=O)cc1C | inconclusive [inhibitor, single point] |  |
| O=C1OCCN/C1=C\C(=O)c1ccc(Cl)cc1 |  | inactive: -10.2% |
| CNc1nc2ccccc2n1/N=C/c1cccc(OC)c1OC | inconclusive [inhibitor, partial curve, poor fit] |  |
| CC[n+]1c(/C=C/C=C/N(C(C)=O)c2ccccc2)sc2cc(OC)ccc21 | inconclusive [inhibitor, single point] |  |
| FC(F)Sc1ccc(N=C2NN=C(c3ccc4c(c3)OCCO4)CS2)cc1 | inconclusive [inhibitor, single point] |  |
| COc1cc(N2CCCC2)ccc1C=O | active: 12.6 µM |  |
| COc1ccc(CCNc2oc(-c3ccc(C)cc3)nc2C#N)cc1OC | inconclusive [inhibitor, partial curve] |  |
| CCn1c(C)c(C(C)=O)c(N2CCN(c3ccc(OC)cc3)CC2)nc1=S | active: 25.1 µM |  |
| Cc1nc(NS(=O)(=O)c2ccccc2C)c2c3c(sc2n1)CCC3 | inconclusive [inhibitor, partial curve] |  |
| CCN(CC(=O)Nc1ccc(C(=O)OC)cc1)Cc1ccccc1 | inconclusive [inhibitor, partial curve] |  |
| O=C(Nc1ccccn1)c1cc(-c2cccnc2)nc2ccc(Br)cc12 |  | inactive: 4.05% |
| Cc1ccc(OCC(=O)Nc2ccccc2F)cc1C |  | inactive: -3.81% |
| Cc1sc2ncnc(SCC(=O)N3CCCC3=O)c2c1C | active: 0.1 µM |  |
| O=C(NC1CCN(Cc2ccccc2)CC1)C1CCCN(S(=O)(=O)c2cccc3nonc23)C1 (stereo not given) | inconclusive [inhibitor, single point] |  |
